Measurements as given in the supplement of paper PMC12217912.
This is one part of the list. The full chains were built here from the parent and the listed change. Inactive controls read about 0.05.

B1: TEV protease; numbered along this chain (parent)
chain: MGESLFKGPRDYNPISSSICHLTNESDGHTTSLYGIGFGPFIITNKHLFRRNNGTLVVQSLHGVFKVKDTTTLQQHLVDGRDMIIIRMPKDFPPFPQKLKFREPQREERICLVTTNFQTKSMSSMVSDTSCTFPSGDGIFWKHWIQTKDGQCGSPLVSTRDGFIVGIHSASNFTNTNNYFTSVPKNFMELLTNQEAQQWVSGWRLNADSVLWGGHKVFMVKPEEPFQPVKEATQL

Variants of: B1
Experiment: raw area under fraction-flipped curve 0-4 h after induction (AUC4h, not background-subtracted), DNA-recorder readout of cleavage of the substrate (dimensionless); higher = more cleavage of the substrate by the protease variant
Settings: temperature: 34 °C; time window: 0-4 h after rhamnose induction
Description: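 In vivo DNA recorder in E. coli TOP10(DE3) ΔrhaA at 34 °C. Each TEVp single-site mutant (parent TEVp 0) is paired with a single-site variant of the 7-mer TEVs (canonical ENLYFQ|S). The substrate sits between flexible linkers in a Bxb1-sfGFP-TEVs-SsrA fusion, so cleavage stabilises Bxb1 and speeds flipping of a recombination array, read by NGS. The value is the raw area under the fraction-flipped curve over 0-4 h after rhamnose induction (AUC4h), with ≥20 reads per time point. It is not background-subtracted; inactive controls average about 0.047.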
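Further: Bxb1 expression induced with 0.2% (w/v) L-rhamnose at OD600 near 0.5, cultures sampled hourly, flipped fraction per protease–substrate barcode pair counted by paired-end Illumina sequencing.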

| Variant | area with substrate ENLYAQS | area with substrate ENLYCQS | area with substrate ENLYDQS | area with substrate ENLYEQS | area with substrate ENLYGQS | area with substrate ENLYHQS | area with substrate ENLYKQS | area with substrate ENLYLQS | area with substrate ENLYMQS | area with substrate ENLYNQS | area with substrate ENLYQQS | area with substrate ENLYRQS | area with substrate ENLYVQS | area with substrate ENLYWQS | area with substrate ENLYIQS | area with substrate ENLYPQS | area with substrate ENLYSQS | area with substrate ENLYYQS | area with substrate ENLYTQS |
| --- | --- | --- | --- | --- | --- | --- | --- | --- | --- | --- | --- | --- | --- | --- | --- | --- | --- | --- | --- |
| H143D | 0.0593 | 0.0575 | 0.0526 | 0.0418 | 0.046 | 0.0645 | 0.058 | 0.0598 | 0.0586 | 0.0464 | 0.0211 | 0.0548 | 0.11 | 0.0506 | – | – | – | – | – |
| Q234F | 0.0522 | – | 0.0627 | 0.0697 | – | 0.0693 | 0.062 | – | 0.0762 | 0.0845 | – | 0.0676 | 0.0829 | 0.0774 | 0.0932 | 0.0562 | 0.0704 | 0.0655 | – |
| Q198R | 0.0451 | 0.0887 | 0.066 | 0.0828 | 0.102 | 0.071 | 0.0611 | – | – | 0.0672 | – | – | – | – | – | – | – | – | – |
| T181P | 0.039 | – | 0.0701 | 0.0478 | 0.0587 | 0.0588 | 0.0526 | – | 0.0599 | 0.062 | 0.0594 | 0.055 | – | 0.0862 | 0.0578 | 0.0572 | – | – | 0.0593 |
| S158D | 0.0793 | – | 0.0541 | 0.07 | – | – | 0.0671 | – | 0.0712 | – | 0.0596 | 0.0302 | – | 0.0704 | 0.104 | – | – | 0.0526 | 0.0579 |
| G37M | 0.0614 | – | 0.054 | 0.061 | 0.0599 | 0.0505 | 0.0549 | – | 0.0791 | 0.0595 | – | – | 0.0877 | 0.0604 | 0.114 | 0.0647 | – | 0.0569 | – |
| G37V | 0.0602 | 0.0665 | 0.0624 | 0.0522 | 0.0545 | 0.0564 | 0.0172 | 0.0646 | 0.0713 | 0.0777 | 0.0215 | 0.0562 | 0.0974 | 0.091 | 0.0921 | 0.0665 | 0.0656 | – | 0.0528 |
| P184M | 0.0533 | 0.0553 | 0.0538 | 0.0623 | 0.0458 | 0.0594 | 0.0424 | 0.0705 | 0.0633 | 0.0371 | 0.0632 | 0.0664 | – | 0.0535 | 0.0752 | 0.0627 | 0.0634 | 0.0545 | – |
| P155N | 0.063 | 0.0598 | 0.046 | 0.0672 | 0.0551 | 0.058 | 0.0446 | 0.0097 | 0.0604 | 0.0529 | 0.0432 | 0.05 | 0.0416 | 0.0575 | 0.0568 | 0.0507 | – | 0.0375 | 0.0561 |
| P155V | 0.0773 | 0.0899 | – | 0.0596 | 0.0595 | 0.0861 | 0.081 | – | – | 0.0545 | 0.0329 | – | 0.108 | 0.0733 | 0.102 | 0.0616 | – | 0.0492 | – |
| P155H | 0.0503 | 0.0553 | 0.0528 | 0.0541 | 0.0437 | 0.0493 | 0.0244 | – | 0.0554 | – | 0.056 | 0.0566 | 0.0291 | – | 0.0609 | 0.0519 | – | 0.0489 | – |
| T70G | 0.0754 | – | – | 0.0518 | 0.0604 | 0.0597 | 0.0453 | 0.0644 | 0.0735 | – | 0.0601 | 0.0374 | 0.0877 | 0.0471 | 0.0981 | – | – | 0.0385 | 0.0703 |
